Reference: ChEMBL document CHEMBL4888484, “Replenishing the malaria drug discovery pipeline: Screening and hit evaluation of the MMV Hit Generation Library 1 (HGL1) against asexual blood stage Plasmodium falciparum ,using a nano luciferase reporter read-out” (2022)
The campaign covered roughly 150,000 compounds. About 540 (0.36%) showed an effect of 50% or more. Some of the results follow.

tested on: Plasmodium falciparum; assay: Primary screen in NF54 nanoGlo assay, in single point, at 2uM, 72h; a lower Z score goes with more inhibition; type: functional, Erythrocyte; settings: timepoint 72 hour

SMILES | % Inhibition [%] | Z score
O=C(N[C@@H](Cc1ccccc1)C(=O)NC1CCCNC1=O)OCc1ccccc1 (stereo not given in full) | -4 | 0.76
COc1cc([C@H]2C(=O)N(C3CCCCCC3)CC(=O)N2C2CC2)ccc1OC(C)C | 6 | -1.08
Cc1ccc(NC(=O)CCc2c(C)nn(-c3cc(N4CCOCC4)ncn3)c2C)c(Cl)c1 | -8 | 1.67
C[C@H]1C(=O)NCCCN1C(=O)c1cc(C2CC2)on1 | -2 | 0.27
CCOC(=O)c1cc(CN2CCS(=O)(=O)[C@@H](C)C2)[nH]c1C | 4 | -0.53
Cc1cc(C(=O)NCc2nnc3n2CCOC3)oc1Br | -6 | 0.84
CC(C)(C)CN1C[C@]23C=C[C@H](O2)C(C(=O)N2CCS(=O)(=O)CC2)C3C1=O (stereo not given in full) | -2 | 0.31
CCNc1ncc(C(=O)NCCOc2ccc(CC#N)cc2)s1 | -1 | 0.14
Cc1cccc(NC(=O)N2CCCCC[C@H]2c2nc(-c3ccccc3)no2)c1 | -2 | 0.44
CN=C(NCc1noc(C)n1)N(C)Cc1cnn(-c2ccccc2)c1 | 7 | -1.13
O=C(c1cc(-c2ccc(Cl)s2)nc2ccccc12)n1nnc2ccccc21 | -7 | 0.94
N#Cc1cccc(-c2ccc3ncnc(NCCO)c3c2)c1 | -2 | 0.21
COc1ccc(CN2CCN(c3cccc4c3C(=O)N(C[C@H]3CCCO3)C4=O)CC2)c(OC)c1C | 5 | -0.6
CC1CCN(C(=O)c2ccc(-c3ccc(N4CCCC4)nn3)cc2)CC1 | -9 | 1.34
CN1CCN(Cc2ccccc2OCCO)C[C@H]1c1ccccc1 | -13 | 1.98
Cc1ccccc1NS(=O)(=O)c1ccc(-c2[nH]ncc2C(=O)N(C)C)o1 | -4 | 0.44
O=C(CCc1cccc2ccccc12)Nc1cccnc1 | -6 | 1.11
COc1ccc(C(=O)N[C@H](c2nnc3n2CCNCC3)C(C)C)cc1 | 11 | -1.94
NS(=O)(=O)c1ccc(F)c(-n2nc(CC3CC3)nc2-c2cnccn2)c1 | 1 | -0.12
Cc1nnc(CN2Cc3ccccc3S2(=O)=O)s1 | -15 | 2.19
O=C(NC[C@](O)(c1ccoc1)c1ccco1)c1c(F)cccc1F | -5 | 0.91
CCCNC(=O)Nc1nn(-c2cccc(F)c2)c2cccc(N3CCOCC3)c12 | -11 | 1.4

SMILES | % Inhibition [%] | Z score
O=C1NCCN2CCN(Cc3ccc4c(c3)CCO4)CC[C@@H]12 | 8 | -1.53
Cc1ccc(N2CCN(c3ccc(C)cc3)C2c2ccc3c(c2)OCO3)cc1 | -8 | 1.05
Cc1ncsc1CCC(=O)N1CCN(CC2CC2)[C@@H]2CS(=O)(=O)C[C@@H]21 | -14 | 1.8
Cc1ccc(C)c(-n2nc(CC(N)=O)nc2[C@H](O)C2CCCCC2)c1 | -8 | 1.08
Cc1ccc2c(c1)c(=O)n(C(C)(C)C)n2CC(=O)Nc1ccc(Cl)cc1F | -4 | 0.54
CC(NC(=O)N1CCCC1c1cccs1)C1CCCO1 (stereo not given) | -3 | 0.4
Cc1cc(CN(C)Cc2cc(Cl)ccc2F)on1 | -9 | 1.37
O=C(Nc1cccnc1)c1ccc(S(=O)(=O)NC2CC2)cc1 | -10 | 0.86
C[C@](O)(CNC1CCN(OCc2ccccc2)CC1)c1ccsc1 | -7 | 1.18
O=C(CCc1c[nH]cn1)N1CC[C@H](c2ccnc(-c3ccncc3)c2)C1 | -5 | 0.9
Nc1ccc2ncnc3c2c1C(=O)c1ccccc1-3 | -1 | 0.23
CS(=O)(=O)Nc1cccc(Oc2ncccc2C(=O)NC2CC2)c1 | 3 | -0.59
CO[C@H]1CCCN(Cc2[nH]c(=O)[nH]c2C(=O)O)C1 | -10 | 1.02
CN1CCN(C(=O)Cn2ccc(NC(=O)Cc3cccs3)n2)CC1 | 1 | -0.16
CCOC[C@H]1CCCN(C(=O)NCc2coc3ccccc23)C1 | 10 | -1.82
Cc1ccc(C2=NC3(CCN(Cc4ccccc4)CC3)N[C@H](c3cc(Cl)ccc3O)C2)cc1 | 9 | -0.98
COc1cc2c(cc1-c1nccn1Cc1noc(C(C)C)n1)OCO2 | 5 | -0.45
Fc1cc(Br)cc2c1CCN(c1ncnc3nc[nH]c13)C2 | 7 | -1.16
NC(=O)c1ncn(C2CCCN(C(=O)NCCC3CC4CCC3C4)C2)n1 (stereo not given) | -20 | 2.86
O=C(Nc1cccc2cccnc12)c1csc2c1CCCC2 | -16 | 2.18
O=C(c1ccc2c(c1)OCO2)C1[C@@H](c2ccc(Cl)cc2)C2CCCN2[C@@]12C(=O)Nc1ccccc12 (stereo not given in full) | -4 | 0.55
CNC(=O)N1CCCC(C(F)(F)F)C1C (stereo not given) | 3 | -0.3

SMILES | % Inhibition [%] | Z score
COc1cccc(OCc2n[nH]c(C[C@H](C)n3cccn3)n2)c1 | -14 | 1.62
Cc1cc(C)n(CCNC(=O)c2cn[nH]c2)c(=O)n1 | -5 | 0.73
CC1CC(C)CN(C(=O)CCc2nnc3ccc(N4CCOCC4)nn23)C1 (stereo not given) | 3 | -0.33
O=C1CCCCN1CCCC(=O)N1CCO[C@@H](CC2CCCCC2)C1 | 13 | -1.69
Cc1cc(O[C@H]2CCN(C(=O)Cn3cnc4ccccc4c3=O)C2)nc(C)n1 | -3 | 0.51
Cc1cccc2nc(Cn3cnc(C#N)c3C#N)cn12 | -3 | 0.61
Cc1noc(C(C)C)c1C(=O)N1CC(N2CCNC2=O)C1 | -3 | 0.4
Cc1cc(CNC(=O)N(C)CC2(C)COC2)n[nH]1 | 2 | -0.32
Cc1cccc(OC2CN(c3cc([C@H]4CCOC4)nc(NCCO)n3)C2)c1 | -2 | 0.26
CN(Cc1csc(-c2ccccc2)n1)S(=O)(=O)N1CCCC1 | -12 | 2.24
N#CCCN(Cc1ccco1)C(=O)[C@@H]1Cc2cc(Cl)ccc2O1 | -4 | 0.36
CC(C)C[C@@]1(C)CC(=O)N(CC(=O)NCCc2ccc(F)cc2)C1=O | 2 | -0.26
O=C1[C@@H]2CCCCN2C(=O)N1Cc1coc(-c2ccc(F)cc2)n1 | -1 | 0.08
O=C(O)[C@@H]1CN(C(=O)Cc2cn3c(n2)CCCC3)C[C@H]1c1ccc(Cl)cc1 | -14 | 1.51
COc1ncc(NCc2c[nH]nc2C)cc1C#N | 1 | -0.1
O=C(CCCOc1ccc(F)cc1F)Nc1nnn[nH]1 | 8 | -0.97
NS(=O)(=O)c1ccccc1CCCOCc1ccccc1 | -8 | 1.15
CC1CN(CC(=O)NCC2CCCO2)c2ccc(F)cc2O1 (stereo not given) | -10 | 1.19
Cc1nsc2ncn(C[C@H](O)COCc3ccco3)c(=O)c12 | 38 | -5.48
CCCNC(=O)NC1CCC(Nc2nc(C3CCCCC3)nc3c2c(C)nn3-c2ccccc2)CC1 (stereo not given) | 5 | -0.77
COC(=O)[C@](C)(N)c1ccc(OC)cc1 | 8 | -0.78
C=CCC(=O)N1CC[C@@]2(CCCN(Cc3ccc(F)c(F)c3)C2=O)C1 | -6 | 0.63

SMILES | % Inhibition [%] | Z score
COc1cc(F)c([C@H](C)NC(=O)N(C)Cc2ccco2)cc1OC | 44 | -8.22
COc1cccc(C(=O)N(Cc2c(-c3ccccc3)noc2N2CCC(C)CC2)CC(C)C)c1 | 1 | -0.2
CCC[C@@]1(C2CCN(C(=O)c3ccc(C)cc3)CC2)NC(=O)N(Cc2ccco2)C1=O | -26 | 3.98
O=C(Nc1ccc(N2CCCC2=O)cc1)c1ccco1 | -5 | 0.43
CCn1cccc(NC(=O)Cc2ccc(OCCOC)cc2)c1=O | -3 | 0.45
CC(=O)[C@@H]1C[C@H](CC(=O)N2C3CCC2CC(c2ccnn2C)C3)C1(C)C (stereo not given in full) | -6 | 1.15
N#Cc1cncc(N2CCC[C@H]2C2CCC2)n1 | 2 | -0.29
Cn1nncc1C(=O)N[C@H]1CCCc2c(F)cc(Cl)cc21 | -17 | 2.16
Cc1noc(C)c1S(=O)(=O)N[C@@H](C)C(=O)Nc1ccc(N2CCOCC2)nc1 | 34 | -3.76
Cc1cccn(CC(=O)N(Cc2ccco2)c2ccc(F)cc2)c1=O | 4 | -0.44
CC(C)N(C)C(=O)C(=O)Nc1cccc2nonc12 | -12 | 1.59
Cc1[nH]nc(CCC(=O)NC(c2ccccc2)[C@H]2C[C@@H](O)C2)c1C (stereo not given in full) | -7 | 1.14
Cc1cc(C(=O)N2C3C=C(c4ccccc4)CC2CC3)no1 (stereo not given) | -9 | 0.84
CC(NCCc1cccs1)C(C)n1cccn1 (stereo not given) | -4 | 0.43
CC1(C)C[C@@]1(NC(=O)Nc1ccnnc1)c1ccccc1 | 11 | -1.31
COc1ccc([C@@H]2C=C(c3ccc(Cl)cc3)N=C3NN=NN32)cc1 | 3 | -0.35
Cc1cc(N2CC[C@@](O)(CN(C)C)C2)nc(C2CC2)n1 | -10 | 1.9
CN(C)CCN(Cc1cccs1)C(=O)Nc1cc(Cl)ccc1N(C)C | -5 | 0.74
Clc1ccc(Cl)c(-c2ccc(CNCCOc3ccccn3)o2)c1 | 30 | -0.61
